# Data: the BET-seq Pho4 binding data (Le et al. 2018)
# The other results are listed elsewhere or left out. These are noisy estimates, calculated here from bound and input reads.
# Target: T1, Pho4 (S. cerevisiae) (UniProt P07270)
# T1 sequence: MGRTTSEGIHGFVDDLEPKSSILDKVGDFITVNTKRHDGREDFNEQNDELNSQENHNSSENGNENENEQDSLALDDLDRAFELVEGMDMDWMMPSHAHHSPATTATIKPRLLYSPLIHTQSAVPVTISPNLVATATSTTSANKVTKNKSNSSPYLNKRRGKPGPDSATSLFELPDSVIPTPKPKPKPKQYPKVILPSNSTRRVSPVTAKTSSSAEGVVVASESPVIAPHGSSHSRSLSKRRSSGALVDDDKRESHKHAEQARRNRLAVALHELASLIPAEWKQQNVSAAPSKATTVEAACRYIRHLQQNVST
# Test: relative binding free energy (BET-seq); higher = weaker binding
# Conditions: reference: library average
row,Sequence,relative binding free energy
1,CGGAGCACGTGTGGGT,-0.0418 kJ/mol
2,CTAGTCACGTGTGGGG,0.335 kJ/mol
3,CATATCACGTGGTGAT,0.586 kJ/mol
4,AGGTGCACGTGTATCG,0.293 kJ/mol
5,TGTTTCACGTGTGATA,1.09 kJ/mol
6,GAGGTCACGTGAAGAG,1.42 kJ/mol
7,AAAAGCACGTGTGGTG,-0.293 kJ/mol
8,ATAGTCACGTGCTTGT,-0.544 kJ/mol
9,ATTTTCACGTGATATG,1.05 kJ/mol
10,GGTCACACGTGAGTGT,1.8 kJ/mol
11,ATGAGCACGTGAATAG,1.17 kJ/mol
12,GGTTTCACGTGCTCTT,1.13 kJ/mol
13,TTTGTCACGTGAGTTG,1.46 kJ/mol
14,TTCTTCACGTGCATGT,0.962 kJ/mol
15,TGCAACACGTGGTGAG,0 kJ/mol
16,TCTAGCACGTGATAGT,0.628 kJ/mol
17,AGGATCACGTGCGTGA,0.335 kJ/mol
18,CGGGACACGTGTAGGG,0.46 kJ/mol
19,CTGAACACGTGGGGAG,-0.126 kJ/mol
20,CCGGTCACGTGGTAGG,0 kJ/mol
21,TTAAACACGTGGCGTG,-0.377 kJ/mol
22,GTGGGCACGTGCGTTT,-0.335 kJ/mol
23,GGGGGCACGTGCTGCT,-0.879 kJ/mol
24,GCGTTCACGTGTAATA,2.3 kJ/mol
25,TCGTGCACGTGTGGAA,0.377 kJ/mol

row,Sequence,relative binding free energy
1,CGCGGCACGTGGTGGT,-0.628 kJ/mol
2,TTGAACACGTGCGTTT,-0.126 kJ/mol
3,GAACGCACGTGGTGTG,-0.628 kJ/mol
4,CTTGACACGTGATTGG,0.377 kJ/mol
5,CAGGACACGTGTTGGT,-0.251 kJ/mol
6,TATGGCACGTGAGAGT,0 kJ/mol
7,AATGTCACGTGGTGTT,0.544 kJ/mol
8,TAATTCACGTGCGTGG,0.669 kJ/mol
9,TTGGGCACGTGTCTGT,-0.753 kJ/mol
10,TTTAGCACGTGTGCCT,0.251 kJ/mol
11,TATATCACGTGTTGCA,0.795 kJ/mol
12,GGAGACACGTGGGAGT,0.0418 kJ/mol
13,TCAATCACGTGGCGGT,0.879 kJ/mol
14,AAGGACACGTGGGACG,-0.335 kJ/mol
15,GGGTGCACGTGCACTG,0.167 kJ/mol
16,CTATTCACGTGGGTGC,0.628 kJ/mol
17,GGTGACACGTGGCGCT,0.0837 kJ/mol
18,CAATTCACGTGTTGTT,1.21 kJ/mol
19,GTGCTCACGTGGGAAA,1.3 kJ/mol
20,GGGCTCACGTGTTTTA,1.8 kJ/mol
21,TCAGGCACGTGTATAG,-0.418 kJ/mol
22,GGGTACACGTGAAAGT,1.63 kJ/mol
23,GTTGTCACGTGGTACG,0.126 kJ/mol
24,CGGAGCACGTGTAGGA,-0.418 kJ/mol
25,AGAAGCACGTGAATGT,0.46 kJ/mol

row,Sequence,relative binding free energy
1,GGTAACACGTGACAGG,1 kJ/mol
2,GAAGACACGTGTAGGT,-0.0837 kJ/mol
3,TGTTCCACGTGTTTAA,0.251 kJ/mol
4,TTGAGCACGTGTTCTG,-0.628 kJ/mol
5,GGTTACACGTGTATTC,0.795 kJ/mol
6,GGGAGCACGTGAAGTG,0.837 kJ/mol
7,TTGTACACGTGGTAAG,0 kJ/mol
8,TTGAGCACGTGGATGT,0.0837 kJ/mol
9,GTGGGCACGTGAAGGG,0.962 kJ/mol
10,AGTATCACGTGTGACT,1 kJ/mol
11,GGATTCACGTGAGCTT,1.55 kJ/mol
12,AGGTTCACGTGGACTA,1.8 kJ/mol
13,TGTAGCACGTGGCATA,-0.962 kJ/mol
14,TTTCACACGTGGGGAG,0.126 kJ/mol
15,ATGTACACGTGTTTAA,0.335 kJ/mol
16,GGGAGCACGTGGTTAA,-0.753 kJ/mol
17,GTTCACACGTGAGTTG,1.42 kJ/mol
18,TTGCTCACGTGATGGT,1.21 kJ/mol
19,GGGTGCACGTGCGTAT,-0.502 kJ/mol
20,GGGCGCACGTGGATGT,0 kJ/mol
21,GATTCCACGTGGTTGG,0.0837 kJ/mol
22,TAGAGCACGTGAGTGT,0.335 kJ/mol
23,TTGCGCACGTGGGCGG,-1.05 kJ/mol
24,TGAGTCACGTGCGGAT,0.0837 kJ/mol
25,ATGGGCACGTGATATG,0.0837 kJ/mol

row,Sequence,relative binding free energy
1,CGCGGCACGTGTGGGC,-0.544 kJ/mol
2,ACGATCACGTGTAGGG,0.46 kJ/mol
3,TTAGCCACGTGTATGT,-0.126 kJ/mol
4,TGGGGCACGTGTAAAT,0.335 kJ/mol
5,GAGATCACGTGGGGAC,0.795 kJ/mol
6,TTTGACACGTGTATCG,-0.46 kJ/mol
7,AGCAGCACGTGGGGGG,-0.795 kJ/mol
8,GGTGGCACGTGACTGG,0.335 kJ/mol
9,AGTGGCACGTGACGGG,0 kJ/mol
10,AGAATCACGTGGAGGT,0.418 kJ/mol
11,ATGGTCACGTGAAGTT,1.46 kJ/mol
12,TTAGTCACGTGGCGTT,-0.251 kJ/mol
13,GTGTGCACGTGTGTGT,0.795 kJ/mol
14,TAGTTCACGTGTCAGG,1.63 kJ/mol
15,AAGGGCACGTGGTAGC,-0.711 kJ/mol
16,GGTGCCACGTGTGTCG,-0.586 kJ/mol
17,GGGTACACGTGTTGTT,0.753 kJ/mol
18,CAGGTCACGTGGGTTT,0.418 kJ/mol
19,ATGCTCACGTGGTGTG,0.126 kJ/mol
20,AAGTTCACGTGGGGAT,0.502 kJ/mol
21,TGGTGCACGTGAAGAC,0.837 kJ/mol
22,TGAGCCACGTGGGATG,-0.418 kJ/mol
23,GTATGCACGTGGGCAT,-0.209 kJ/mol
24,AGAAACACGTGGGCGT,-0.0418 kJ/mol
25,GCGTTCACGTGGTGTG,0.795 kJ/mol

row,Sequence,relative binding free energy
1,ATTGTCACGTGTGCTA,-0.377 kJ/mol
2,GTTGGCACGTGGCGGT,-0.586 kJ/mol
3,AGTCGCACGTGGGCGG,-1.09 kJ/mol
4,TTAGCCACGTGGGATT,-0.962 kJ/mol
5,GGGGCCACGTGGTATG,-0.377 kJ/mol
6,GATGGCACGTGGGCGT,-0.628 kJ/mol
7,TGTGTCACGTGGAAGG,0.753 kJ/mol
8,GGTGTCACGTGTCGAT,0.628 kJ/mol
9,TGAGTCACGTGGGATG,0.0418 kJ/mol
10,TCAGACACGTGGGGGC,-0.126 kJ/mol
11,TGTCTCACGTGCATGG,0.837 kJ/mol
12,TTGTACACGTGTATGT,0.46 kJ/mol
13,GGCGACACGTGGTGAA,0.418 kJ/mol
14,TTAATCACGTGGGTGT,-0.209 kJ/mol
15,TACTTCACGTGGAAGT,1.34 kJ/mol
16,GGGGGCACGTGAACGT,0.586 kJ/mol
17,GTTGGCACGTGCGTCA,-0.502 kJ/mol
18,GTACGCACGTGGTGAG,-0.711 kJ/mol
19,CTTCTCACGTGTAGTT,1.51 kJ/mol
20,TATGTCACGTGTATTC,-0.209 kJ/mol
21,CGGGTCACGTGTTTTA,0.586 kJ/mol
22,CGCGGCACGTGGGCGT,-0.92 kJ/mol
23,GCCGTCACGTGTAGTG,1.09 kJ/mol
24,CCGGTCACGTGTGGCG,1 kJ/mol
25,AACGTCACGTGTTATG,0.251 kJ/mol

row,Sequence,relative binding free energy
1,GTGAACACGTGATTTT,1.05 kJ/mol
2,TGGTTCACGTGGTTCA,0.92 kJ/mol
3,GTGGCCACGTGAGTTG,0.837 kJ/mol
4,AAGGGCACGTGGTTGC,-0.962 kJ/mol
5,AATGGCACGTGTTCGT,-0.418 kJ/mol
6,AGCGCCACGTGTGGTT,0.0418 kJ/mol
7,GGTATCACGTGGTGGC,0.795 kJ/mol
8,TGATGCACGTGGTGAA,-0.0837 kJ/mol
9,GTAGACACGTGGGTAG,-0.0837 kJ/mol
10,GGTGACACGTGATTTT,0.502 kJ/mol
11,TAGGTCACGTGGTAGA,0 kJ/mol
12,GTGTGCACGTGGCGGG,-0.377 kJ/mol
13,CAGGTCACGTGGTATA,0.502 kJ/mol
14,TGAGACACGTGTTGAT,0.502 kJ/mol
15,TTACTCACGTGGGATG,0.92 kJ/mol
16,GGGTACACGTGGTTCG,0.418 kJ/mol
17,GCAAGCACGTGAGTGT,0.795 kJ/mol
18,AAGGGCACGTGTGAGA,-0.0418 kJ/mol
19,ATATTCACGTGGATTG,0.879 kJ/mol
20,GGGCGCACGTGTACTG,0.0418 kJ/mol
21,ATATTCACGTGGGACG,1.13 kJ/mol
